Data on 195 variants can be found in a collection of fitness landscapes (doi:10.1126/science.1257360).

The list shows a part of the results.

The labels stand for the following.
B1: PhoQ; a variant is named by its letters at X, in order, P23837 (parent)
chain: MKKLLRLFFPLSLRVRFLLATAAVVLVLSLAYGMVALIGYSVSFDKTTFRLLRGESNLFYTLAKWENNKLHVELPENIDKQSPTMTLIYDENGQLLWAQRDVPWLMKMIQPDWLKSNGFHEIEADVNDTSLLLSGDHSIQQQLQEVREDDDDAEMTHSVAVNVYPATSRMPKLTIVVVDTIPVELKSSYMVWSWFIYVLSANLLLVIPLLWVAAWWSLRPIEALAKEVRELEEHNRELLNPATTRELTSLVRNLNRLLKSERERYDKYRTTLTDLTHSLKTPLXXLQXXLRSLRSEKMSVSDAEPVMLEQISRISQQIGYYLHRASMRGGTLLSRELHPVAPLLDNLTSALNKVYQRKGVNISLDISPEISFVGEQNDFVEVMGNVLDNACKYCLEFVEISARQTDEHLYIVVEDDGPGIPLSKREVIFDRGQRVDTLRPGQGVGLAVAREITEQYEGKIVAGESMLGGARMEVIFGRQHSAPKDE

This assay covers variants of B1. The assay can be described thus: enrichment ratio after two sorts for PhoP signalling (ratio (wild type AVST 3.29)); higher = more functional. The settings on record: with PhoP (E. coli).
Consider FQPW, for which the enrichment ratio is at most 0.25.
With YPSA the figure was at most 0.25.
As for IETS, the enrichment ratio was at most 0.25.
As for YWKP, the enrichment ratio was at most 0.25.
With IYWW the figure was at most 0.25.
VHVA: the enrichment ratio is at most 0.25.
In the case of TRYA, the enrichment ratio is at most 0.25.
On to PWSD, for which the enrichment ratio was at most 0.25.
Consider GAIE, for which the enrichment ratio was at most 0.25.
In the case of QLCA, the enrichment ratio was at most 0.25.
With LPDQ the figure was at most 0.25; with LAER, at most 0.25; with SAVG, 0.763.
With PRQR the figure was at most 0.25; with NPMM, at most 0.25; with TSWD, 2.13.
On to VVIH, for which the enrichment ratio was at most 0.25.
With GLYV the figure was at most 0.25; with KVNP, at most 0.25.
RYPA: the enrichment ratio was at most 0.25.
With WNQK, the enrichment ratio is at most 0.25.
On to QKSY, for which the enrichment ratio is at most 0.25.
Regarding HHVW, the enrichment ratio is at most 0.25.
With VCNQ the figure was at most 0.25; with VEQI, at most 0.25.
With VPPA the figure was at most 0.25; with SNWR, at most 0.25; with YQMY, at most 0.25.
For IMRW, the enrichment ratio was at most 0.25.
With KCDH, the enrichment ratio is at most 0.25.
With WNFK, the enrichment ratio was at most 0.25.
With NFKY the figure was at most 0.25; with YWPL, at most 0.25; with YRYL, at most 0.25.
QPPQ: the enrichment ratio is at most 0.25.
Consider DPKW, for which the enrichment ratio is at most 0.25.
For GCVM, the enrichment ratio was 3.08.
With QIVN the figure was at most 0.25.
As to YYRP, the enrichment ratio was at most 0.25.
As for ISEG, the enrichment ratio was found to be 0.253.
Consider WFTG, for which the enrichment ratio is at most 0.25.
Turning to YGYW, the enrichment ratio is at most 0.25.
Regarding TCIQ, the enrichment ratio is at most 0.25.
As for SCDD, the enrichment ratio was at most 0.25.
Turning to RECI, the enrichment ratio was at most 0.25.
SYWD: the enrichment ratio is at most 0.25.
As for HDLQ, the enrichment ratio is at most 0.25.
With EYSA, the enrichment ratio was at most 0.25.
WSSG: the enrichment ratio was at most 0.25.
With HSVH, the enrichment ratio was at most 0.25.
On to MKQR, for which the enrichment ratio is at most 0.25.
As for WFSA, the enrichment ratio is at most 0.25.
With NFMN the figure was at most 0.25; with TKSG, 1.03; with FEVE, at most 0.25.
For EFGV, the enrichment ratio was at most 0.25.
Regarding AKSC, the enrichment ratio is 23.2.
With GDPD, the enrichment ratio is at most 0.25.
With VWYI, the enrichment ratio was at most 0.25.
Take KPGR: the enrichment ratio was at most 0.25.
In the case of RQHS, the enrichment ratio was at most 0.25.
With NNYN the figure was at most 0.25; with YKHM, at most 0.25; with HEAQ, at most 0.25.
With IDQF the figure was at most 0.25; with ALDL, at most 0.25.
For the variant AGRC, the enrichment ratio was at most 0.25.
Consider CIMV, for which the enrichment ratio was found to be 12.9.
In the case of NMLT, the enrichment ratio is at most 0.25.
Turning to GQKH, the enrichment ratio was at most 0.25.
As for WGDL, the enrichment ratio is at most 0.25.
Take QSWT: the enrichment ratio was determined as 6.97.
LFYW: the enrichment ratio was at most 0.25.
Take YDSH: the enrichment ratio was at most 0.25.
On to TYSQ, for which the enrichment ratio is 2.49.
With LKTQ, the enrichment ratio was at most 0.25.
GENP: the enrichment ratio is at most 0.25.
With SLEM the figure was at most 0.25; with TNDK, at most 0.25; with LHLI, at most 0.25.
With WATP, the enrichment ratio is at most 0.25.
With RNAA, the enrichment ratio is at most 0.25.
For the variant DEFS, the enrichment ratio was at most 0.25.
On to GYAS, for which the enrichment ratio was at most 0.25.
On to TPSD, for which the enrichment ratio was at most 0.25.
Take YDAM: the enrichment ratio was at most 0.25.
With FGCD, the enrichment ratio was at most 0.25.
In the case of GMHD, the enrichment ratio is at most 0.25.
On to RFWD, for which the enrichment ratio is at most 0.25.
With ALGN the figure was at most 0.25.
With KTDW, the enrichment ratio is at most 0.25.
As for SIMQ, the enrichment ratio was determined as 33.3.
For DWLY, the enrichment ratio is at most 0.25.
Regarding FRGM, the enrichment ratio was at most 0.25.
In the case of DVNN, the enrichment ratio is at most 0.25.
Regarding KYAE, the enrichment ratio is at most 0.25.
In the case of NKFV, the enrichment ratio was at most 0.25.
With ADAV the figure was 5.88; with ATIS, 7.74.
With WSHC the figure was at most 0.25; with GPIN, at most 0.25.
Turning to VVAH, the enrichment ratio is at most 0.25.
With DFWK the figure was at most 0.25.
With KYQE, the enrichment ratio is at most 0.25.
Turning to RGKI, the enrichment ratio is at most 0.25.
Turning to SSCF, the enrichment ratio amounted to 9.17.
MSMV: the enrichment ratio is 12.7.
On to INMI, for which the enrichment ratio came out at 4.25.
With WQME, the enrichment ratio was at most 0.25.
For VFCE, the enrichment ratio was at most 0.25.
IFQT: the enrichment ratio came to 1.13.
Consider SMMM, for which the enrichment ratio was 1.81.
Turning to NIMD, the enrichment ratio is at most 0.25.
With YYYG the figure was at most 0.25; with RACM, at most 0.25.
On to HKWG, for which the enrichment ratio is at most 0.25.
Turning to SWSV, the enrichment ratio is at most 0.25.
INPQ: the enrichment ratio is at most 0.25.
KHAN: the enrichment ratio was at most 0.25.
For the variant ENSN, the enrichment ratio was at most 0.25.
With HPAS the figure was at most 0.25; with VQSA, at most 0.25.
Turning to RMFP, the enrichment ratio was at most 0.25.
Regarding PQHM, the enrichment ratio was at most 0.25.
For the variant YELW, the enrichment ratio was at most 0.25.
With LSQM the figure was at most 0.25; with ITNI, at most 0.25.
Regarding RRND, the enrichment ratio is at most 0.25.
Consider WYLP, for which the enrichment ratio was at most 0.25.
With AESC, the enrichment ratio was determined as 32.1.
For VIYR, the enrichment ratio was at most 0.25.
Turning to ICLM, the enrichment ratio was 10.6.
On to SVGP, for which the enrichment ratio is at most 0.25.
Consider HNWF, for which the enrichment ratio is at most 0.25.
With SLSD the figure was at most 0.25; with VFSS, at most 0.25.
With KNSA, the enrichment ratio was at most 0.25.
IANQ: the enrichment ratio is at most 0.25.
Take MQWR: the enrichment ratio was at most 0.25.
Take YNSI: the enrichment ratio is 0.32.
As for GPAS, the enrichment ratio is at most 0.25.
Regarding YARM, the enrichment ratio is at most 0.25.
LECF: the enrichment ratio was at most 0.25.
On to PKCF, for which the enrichment ratio was at most 0.25.
For RHPH, the enrichment ratio is at most 0.25.
Turning to TEYK, the enrichment ratio was found to be 0.256.
Regarding MTRQ, the enrichment ratio is at most 0.25.
With TMVF the figure was at most 0.25; with TGWS, 10.5.
With YRIR the figure was at most 0.25.
Consider LWPQ, for which the enrichment ratio was at most 0.25.
On to DHKC, for which the enrichment ratio is at most 0.25.
As to ARPK, the enrichment ratio was at most 0.25.
On to SRAI, for which the enrichment ratio is at most 0.25.
Regarding RGWI, the enrichment ratio was at most 0.25.
Take VIYV: the enrichment ratio is at most 0.25.
With ALPH the figure was at most 0.25.
Regarding QHSI, the enrichment ratio was at most 0.25.
Take SPAC: the enrichment ratio was at most 0.25.
Take HNTL: the enrichment ratio was 3.09.
With PMLT, the enrichment ratio is at most 0.25.
With DFKL the figure was at most 0.25.
On to EGRH, for which the enrichment ratio was at most 0.25.
For the variant GAPV, the enrichment ratio was at most 0.25.
As for MQRM, the enrichment ratio is at most 0.25.
Turning to ADDA, the enrichment ratio is at most 0.25.
As to KAHG, the enrichment ratio was at most 0.25.
In the case of KKQH, the enrichment ratio is at most 0.25.
Consider ESFA, for which the enrichment ratio is at most 0.25.
As to SRND, the enrichment ratio was at most 0.25.
For the variant KPWL, the enrichment ratio was at most 0.25.
Take SWYE: the enrichment ratio is at most 0.25.
For the variant NWYF, the enrichment ratio is at most 0.25.
With VTHL the figure was at most 0.25; with EQIE, at most 0.25; with FEIE, at most 0.25.
In the case of KFEW, the enrichment ratio is at most 0.25.
On to PSMY, for which the enrichment ratio is at most 0.25.
Take DFAE: the enrichment ratio was at most 0.25.
With NHSS the figure was at most 0.25.
Consider RLIE, for which the enrichment ratio was at most 0.25.
Turning to LEMW, the enrichment ratio was at most 0.25.
With QMDR the figure was at most 0.25; with GRNI, at most 0.25.
Take WSCL: the enrichment ratio is at most 0.25.
PGDK: the enrichment ratio was at most 0.25.
With VQKG the figure was at most 0.25.
With AGPV, the enrichment ratio is at most 0.25.
Turning to RMRV, the enrichment ratio was at most 0.25.
With PYHP the figure was at most 0.25; with NFSI, at most 0.25; with MVWY, at most 0.25.
With PFPI the figure was at most 0.25.
For RNQH, the enrichment ratio is at most 0.25.
With TMSS, the enrichment ratio worked out at 9.06.
